Laboratory results: ChEMBL document CHEMBL4888484, “Replenishing the malaria drug discovery pipeline: Screening and hit evaluation of the MMV Hit Generation Library 1 (HGL1) against asexual blood stage Plasmodium falciparum ,using a nano luciferase reporter read-out” (2022)
About 540 (0.36%) of roughly 150,000 compounds showed an effect of 50% or more. This is one part of the list.

tested on: Plasmodium falciparum; assay: Primary screen in NF54 nanoGlo assay, in single point, at 2uM, 72h; a lower Z score goes with more inhibition; assay type: functional, Erythrocyte; details: timepoint 72 hour

Structure (SMILES) | % Inhibition | Z score
Cc1cc(OCCON2C(=O)CCC2=O)c(C)cc1Cl | -13% | 1.76
Cn1nccc1CCNC(=O)Nc1ccc(F)cn1 | -11% | 1.82
CCN(CC)c1onc(-c2ccccc2)c1CN(Cc1ccccc1)C(=O)c1ccccc1C | -24% | 2.15
CCC(C)(C)NS(=O)(=O)c1ccc(-c2cc(C(F)(F)F)on2)o1 | -18% | 3.06
Cc1c(CNC2CCCC2)c(C(=O)O)c(C)n1Cc1ccc(F)cc1Cl | -12% | 2.18
Cc1cc(=O)[nH]c(NC[C@]23CC[C@H]2CCCN3C(=O)OC(C)(C)C)n1 | 21% | -2.71
CCC(NC(=O)C1C2CCCCC21)c1cnn(CC)c1 (centres undefined) | -6% | 0.5
CCOc1cc(CN2CCC[C@H]2c2c(C)noc2CC)ccc1O | -12% | 1.61
O=C(O)[C@H]1CN(C(=O)C2CCCCC2)C[C@@H]1C1CC1 | -18% | 3.1
Cc1n[nH]c(C)c1CNCC1(N2CCOCC2)CCCCC1 | -7% | 1.47
O[C@@H](Cc1ccc(C(F)(F)F)cc1)Cn1cnnc1 | 5% | -0.93
COc1ccc2c(c1)CC[C@H](C(=O)Nc1nnn(C)c1C(F)F)C2 | -3% | 0.66
CCC(C)C(C)N(C(=O)c1cncn1C)C1CC1 (centres undefined) | -3% | 0.31
Cc1cc(F)cc(S(=O)(=O)N2CCN3CCOC[C@]3(CO)C2)c1 | -6% | 1.11
CCOc1ccc(S(=O)(=O)N2CCC[C@H](C(=O)NCCN3CCOCC3)C2)cc1Cl | -11% | 1.31
COCc1ccc(C(=O)N[C@@H](C)c2cnn(-c3ccccc3C)c2C)o1 | -15% | 1.28
Cc1cc(C)nc(N[C@H]2C[C@@](C)(O)C2)n1 | 12% | -1.5
O=C(NCc1cccnc1OCC(F)F)c1ccn2ccnc2c1 | 1% | -0.26
O=C(NC1CC1)C1CCCN(C(=O)c2cccc(C(=O)N3CCCC(C(=O)NC4CC4)C3)n2)C1 (centres undefined) | -2% | 0.3
O=C1NC[C@@H](O)CC12CCN(CCCc1ccc(Cl)cc1)CC2 | -18% | 2.26
Cn1cc(C(NC(=O)CCc2c[nH]c3ccccc23)[C@H]2C[C@H](O)C2)cn1 (some centres undefined) | 5% | -0.74
CC(C)(C(=O)N1CC(C(F)F)C1)C1CCC1 | -11% | 1.14

Structure (SMILES) | % Inhibition | Z score
O=C(Nc1cnc2c(F)c(F)ccc2c1)c1c(C(F)F)nc2n1CCCC2 | -13% | 2.38
O=C1N(Cc2ccccc2)C(=O)C2(CCNCC2)N1CCc1ccccc1 | 10% | -1.29
CO[C@H]1CCCN(C(=O)NC2CCN(Cc3ccccc3)CC2)C1 | -7% | 1.12
Cc1cc(Cn2c(C(F)(F)F)ccc(C(N)=O)c2=O)no1 | 30% | -3.36
O=S(=O)(Nc1nc2ccccc2nc1Nc1ccc2ccccc2c1)c1cccs1 | 24% | -2.72
O=C(NCc1ccco1)[C@@]12CCCC[C@H]1N(C1CC1)S(=O)(=O)CC2 | -16% | 1.9
Cc1csc(CCNC(=O)CC2(N3Cc4ccccc4C3=O)CCCCC2)n1 | -18% | 2.6
CCCCOC(=O)N1CCC[C@@]2(CCC(=O)N(Cc3ccncc3)C2)C1 | 7% | -0.92
CCc1ccc(Cn2nc(C[C@@H](C)CC)nc2C2(CO)CC2)cc1 | -7% | 1.29
CCN(Cc1cnn(C)c1)c1ccc(C(=O)OC)nn1 | 6% | -0.72
Cc1cc(CNC(=O)c2ccc3c(c2)OCCO3)nn1C | -6% | 0.96
CN1CCc2[nH]c3ccc(S(=O)(=O)N(C)C)cc3c2C1 | -3% | 0.41
CCc1ccccc1NC(=O)CN1CCN(c2nnc(C)s2)CC1 | -3% | 0.5
Cc1cccc(Cn2c(C)c(C)c(C)c2C(=O)Nc2cccc(F)c2)c1 | -5% | 0.98
CCc1ccsc1C(=O)N1CC[C@@H](O)C1 | -14% | 2.32
CC(CNC(=O)N(C)CCc1cccs1)N1CCOCC1C (centres undefined) | 5% | -0.94
CC1=C(Cc2cn(CCN3CCOC3=O)nn2)C(C)(C)CCC1 | 11% | -1.46
O=C(NC1CC1)N1CCN(Cc2cn3cc(Cl)ccc3n2)CC1 | 0% | 0.08
O=C(NC1CCCCC1)c1cccc(Oc2cc(-c3ccc(F)cc3)ncn2)c1 | -15% | 1.91
O=C(Nc1ccc(N2CCCCCC2)cc1C(=O)O)c1ccc(F)cc1 | 0% | 0.05
CCOc1cc(C#N)c(Br)cc1O | -11% | 1.31
COCCOc1ccnc(-c2noc([C@@H]3CCCN3Cc3ccc(C(F)(F)F)cc3)n2)c1 | 32% | -3.6

Structure (SMILES) | % Inhibition | Z score
O=C(Nc1nc(-c2c(F)cccc2F)cs1)c1ccc2c(c1)COC2 | 0% | 0.01
N#Cc1nccnc1N1CCc2ccccc21 | -10% | 1.47
Cc1ccc(-c2cc3n(n2)CCC(=O)N3CC(=O)N2CCN(c3ccccn3)CC2)cc1 | -4% | 0.36
CCCn1cc(NC(=O)N2CCC[C@]2(C)Cc2cccs2)cn1 | 16% | -1.82
O=C(NC1CC1)N1CC2OCCN(Cc3ccccc3)C2C1 (centres undefined) | 2% | -0.25
O=C(c1cn[nH]c1)N1CCC[C@H]1c1nnc(C2CCOCC2)[nH]1 | -11% | 2.08
O=C(C[C@@H]1CCNC[C@@H]1Cc1cc(COc2ccccc2)on1)NCc1cccnc1 | 2% | -0.39
COc1ccc(CCNc2cc(C)nc3c(C)c(-c4ccccc4)nn23)cc1OC | -12% | 2.3
COc1nc(C)c(NC(=O)OC(C)(C)C)s1 | 10% | -1.42
Cc1cccc(O)c1NC(=O)c1scnc1C1CC1 | 6% | -0.66
Cc1nc(-c2cc(S(=O)(=O)N3CCc4ccccc4C3)c(C)s2)sc1C | -11% | 1.31
O[C@H](CN1CCOCC1)Cn1cnc2ccccc21 | 33% | -3.79
C[C@@H](Cn1ccnc1)C(=O)N1CCC(Cc2cc(F)ccc2F)CC1 | -4% | 0.71
CC[C@H]1CN(CCn2cc(CNCc3ccccc3C)c(C)n2)CCO1 | 0% | -0.05
O=C(O)[C@H]1CCCN(C2CCN(Cc3ccccc3)CC2)C1 | -13% | 1.5
Cn1ccnc1-c1ccc(C(=O)NC2CCOCC2)cc1 | -12% | 1.16
CCOc1ncccc1CNC(=O)N1CCC(c2ccc3cccnc3n2)CC1 | -9% | 1.01
Cc1n[nH]c(C)c1CC(=O)Nc1ccc2c(c1)CCC2 | -1% | 0.12
CC(C)O[C@H]1CN(Cc2ccc(Cl)o2)C[C@@H]1O | 1% | -0.19
Cc1cc(CN(C)C2CCN(c3ncc4ccc(F)cc4n3)CC2)no1 | 2% | -0.22
O=C(NCCN1CCOCC1)c1nnc(-c2ccncc2)o1 | -2% | 0.32
c1ccc(-c2nnc([C@H]3CCN(Cc4ccc5c(c4)OCO5)C3)o2)cc1 | -13% | 1.69

Structure (SMILES) | % Inhibition | Z score
CCc1cc(Cl)ccc1NC(=O)NC[C@@H]1C[C@H](F)CN1 | 5% | -0.6
CC(=O)N1CCCN(S(=O)(=O)c2ccc(F)cc2F)CCNC(=O)[C@@H]2CCC[C@@H]21 | 35% | -3.92
CC(C)(C)C(=O)N1CCC(CN(CC(N)=O)C2CCCC2)CC1 | -2% | 0.17
CC(C)Cc1ccc(CN2C[C@@H]3CC[C@H]2CN(C)C3)s1 | -3% | 0.56
CNC(=O)C1CCCC1NC(C)C(=O)NCc1cccs1 (centres undefined) | -9% | 0.83
Cc1cn(C)nc1CNC[C@](C)(O)C1CC1 | 21% | -2.65
COCCOCCN(C)CCCc1ccc(OC)cc1 | -7% | 0.59
Cc1ccc(NC(=O)c2cc(=O)[nH]c3ccccc23)nc1 | -11% | 1.65
C=CCOCCN[C@@H](C)c1cccc(O)c1 | 3% | -0.42
COc1cc(C(=O)N2CCC(OCC3CCCC3)CC2)ncn1 | -21% | 2.86
Cc1nc(N2CCc3noc(N)c3C2)ccc1C#N | -4% | 0.81
CCC[C@H]1CN(Cc2cc3ccccc3n2C)C[C@@H]1NS(C)(=O)=O | -4% | 0.83
COCCN(CCOC)C(=O)c1ccccc1F | 7% | -0.91
O=C(COc1ccnc(C(F)(F)F)c1)NCc1ccccc1F | 34% | -3.85
C[C@]1(O)C[C@@H](NS(=O)(=O)c2cc(Br)c(F)cc2F)C1 | -5% | 0.61
O=C(c1cccs1)N1CCC(NCCc2nc(C3CC3)no2)CC1 | 13% | -2.02
CCCN(CCO)C(=O)Nc1ccc(Br)cc1Cl | 12% | -1.33
Cc1nc(C(NC(=O)Cc2ccc(Cl)cc2)C(C)O)cs1 (centres undefined) | 10% | -1.54
O=C(NCc1ccc(N2CCOCC2)cc1)C1CCN(c2cnc3nccnc3c2)CC1 | -14% | 2.22
CCC1CCCC(NC(=O)N(C)C(C)CS(C)(=O)=O)C1 (centres undefined) | 3% | -0.67
C[C@@H](CCc1cccc(F)c1)C(=O)NS(=O)(=O)c1cccnc1 | -5% | 0.94
